For orientation: inhibition means the relative decrease from the control value, in per cent.

In all, about 340,000 compounds went through this assay and about 6,900 (2%) were called active. Cut-off read from the data, not from the text of the source: active = inhibition above about 30%; inactive = below that, where a call was filed. The entries are a selection whose mix differs from that of the whole data set. Where no call is shown, the source filed none.

UniProt P14416, sequence (P14416 whole entry, looked up): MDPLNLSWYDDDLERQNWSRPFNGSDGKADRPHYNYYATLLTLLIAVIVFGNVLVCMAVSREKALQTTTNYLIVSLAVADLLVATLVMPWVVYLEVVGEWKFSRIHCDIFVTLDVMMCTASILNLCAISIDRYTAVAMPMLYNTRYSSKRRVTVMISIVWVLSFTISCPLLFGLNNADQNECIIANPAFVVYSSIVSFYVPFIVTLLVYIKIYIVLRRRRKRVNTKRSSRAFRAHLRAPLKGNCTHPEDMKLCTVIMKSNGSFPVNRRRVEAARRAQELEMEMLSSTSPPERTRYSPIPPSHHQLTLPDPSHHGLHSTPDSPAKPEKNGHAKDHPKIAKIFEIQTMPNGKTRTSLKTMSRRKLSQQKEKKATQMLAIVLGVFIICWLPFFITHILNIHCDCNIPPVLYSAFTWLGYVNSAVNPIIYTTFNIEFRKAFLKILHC

This test concerns the target D(2) dopamine receptor (Homo sapiens) (UniProt P14416). Nature of the test: HTS Assay for Allosteric Antagonists of the Human D2 Dopamine Receptor: Primary Screen for Antagonists. Note: 0% is about no effect. Particulars: HEK293 TREx D2 cells, calcium flux, dopamine EC80; at 10 µM; stronger effect = higher value. The method, boiled down:
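Compounds are added to dye-loaded, induced HEK293 T-REx cells coupled to calcium release via D2; after a 3 min kinetic read an EC80 dopamine stimulus is given and fluorescence is recorded for 3 more min.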
For orientation: A change in cytosolic calcium serves as a functional read-out for many receptors and channels.
For `COc1cc(OC)c(NC(=O)Nc2c(C)n(C)n(-c3ccccc3)c2=O)cc1Cl`, the inhibition is -12.7%. Then `O=C(NC1CC(=O)N(c2cccc(F)c2)C1)C(c1ccccc1)c1ccccc1` (stereo not given), with -15.3%. In the case of `Cc1cccc(C)c1NC(=O)CCCN1C(=O)CCn2nc(-c3cn(C)c4ccccc34)cc21`, the inhibition is 16.7%. Under `Cc1cccc(Cn2nnc(C(=O)Nc3cc(C)ccc3C)c2N)c1` stands -1.85%. Under `COc1cccc(NC(=O)C2CCN(c3nc4ccccc4nc3C(F)(F)F)CC2)c1` stands -4.71%; under `COc1ccc(Cl)cc1NC(=O)Cn1cnc2c1c(=O)n(C)c(=O)n2C`, -4.33%; under `Cc1ccc(CNC(=O)CCCn2c(=O)c3ccccc3n(Cc3ccccc3C)c2=O)cc1`, 19.8%.

Turning to `CC(NC(=O)c1ccc2c(c1)N(Cc1ccc(Cl)cc1)C(=O)c1ccccc1S2=O)c1ccccc1` (stereo not given), the inhibition was -0.0662%.

For the molecule `CC(C)NC(=O)C1CCCN(c2ncnc3c2nc2n3CCCCC2)C1` (stereo not given), the inhibition was -10%.

For `Cc1cccc(Cn2cnc3c(cnn3-c3ccc(Cl)cc3)c2=O)c1`, the inhibition is -8.43%. Under `Cc1ccc(CN2CCN(C3CCN(C(=O)Nc4ccccc4C(F)(F)F)CC3)C(=O)C2=O)cc1` stands -10.8%. Consider `Cc1cc(C)c2oc(C(=O)Nc3ccc(S(=O)(=O)N4CCC(C)CC4)cc3)cc(=O)c2c1`, for which the inhibition stood at 0.0257%. Under `CC(=O)NCCCC(=O)NNC1CC(=O)N(c2cccc(Cl)c2)C1=O` (stereo not given) stands active: 37.1%.

Take `Cc1ccc(S(=O)(=O)n2nc(-c3ccco3)nc2NCc2ccccc2Cl)cc1`: the inhibition came to 6.5%. Then `CCn1c(=O)cc(OCC(=O)N2CCN(c3ccccc3OC)CC2)c2ccccc21`, with 7.52%; and `CCn1cc2nc(SCC(=O)Nc3ccc(F)cc3F)n(Cc3ccccc3)c(=O)c2n1`, with active: 31.9%. Under `Cn1c(CNC(=O)CSc2nc(-c3cccc(Cl)c3)nc3cc(=O)[nH]n23)nc2ccccc21` stands 9.31%; under `Cc1cc(N2CCN(c3cccc(C)c3C)CC2)n2nc(C)c(-c3ccc(Cl)cc3)c2n1`, 15.2%; under `CCOc1ccc(C2c3c(oc4ccccc4c3=O)C(=O)N2c2nnc(C)s2)cc1OC` (stereo not given), 4.47%. Under `Cc1ccccc1CNC(=O)c1cc2cc(S(=O)(=O)N3CCCCC3)ccc2n1C` stands 4.65%. `COc1ccc(-n2c(-c3ccco3)nc3c(cnn3-c3ccccc3C)c2=O)cc1`: the inhibition was -10.9%.

For the molecule `CC(CNS(=O)(=O)c1ccc2c(c1)CC(=O)N2C)c1ccccc1` (stereo not given), the inhibition is 7.99%. For the molecule `Cc1ccc(C(C)C)c(OCCCn2c(=O)oc3ccccc32)c1`, the inhibition was -19.7%. Then `CCOC(=O)c1c(C)oc2nc(C)nc(NCCCN3CCN(c4ccc(F)cc4)CC3)c12`, with 11.4%; and `COc1ccc(C(=O)NCCn2cc(SCc3cc(C)ccc3C)c3ccccc32)cc1`, with -8.19%. Under `COc1ccccc1NC(=O)c1ccc2oc(=O)c(S(=O)(=O)c3ccccc3)cc2c1` stands 2.68%. Under `COc1cc(C(C)=O)ccc1OCCCN1CCC(Cc2ccccc2)CC1` stands active: 34.6%; under `CCC(C)NC(=O)c1ccc2c(c1)N(Cc1ccccc1F)C(=O)c1ccccc1S2=O` (stereo not given), -7.25%.

Turning to `Cc1cc(C)cc(NC(=O)c2cnn(-c3ccc(C)c(C)c3)c2C2CCNCC2)c1`, the inhibition turned out to be 7.67%. Under `c1ccc(-c2nc3nonc3nc2-c2ccccc2)cc1` stands active: 40.8%; under `COc1ccccc1CN1CCN(C(=O)c2ccco2)CC1`, active: 85.4%. In the case of `Cn1c(=O)oc2cc(S(=O)(=O)NCCC(=O)NCc3ccc(F)cc3)ccc21`, the inhibition was -9.97%. Under `CCCCn1c(=N)c(C(=O)NC2CCCCC2)cc2c(=O)n3cccc(C)c3nc21` stands -9.59%; under `O=C(NCc1ccc(F)cc1)c1ccc(Cn2c(SCc3ccc(F)cc3)nc3cccnc32)cc1`, 0.562%.

`CCN(CCCNC(=O)c1cc2cc3ccc(OC)cc3nc2s1)c1cccc(C)c1`: the inhibition is 0.347%. Under `CC(C)Cn1c(=O)c2ccccc2n2c(CCC(=O)NCc3ccc(Cl)cc3)nnc12` stands 3.47%. Under `Cn1nnc2c(NCc3ccccc3)ncnc21` stands -20.1%; under `O=C(N/N=C/c1cc(Cl)ccc1O)c1ccc(Br)cc1`, active: 34.1%; under `CCc1cccc(NC(=O)C(NS(=O)(=O)c2ccc3nc(C)sc3c2)C(C)C)c1` (stereo not given), -13.4%. Then `CC(C)c1ccc2c(c1)NC(c1ccncc1)=NC(c1cccs1)=N2`, with -4.86%. Regarding `COc1cccc(NC(CNS(=O)(=O)c2ccc(Cl)cc2)c2ccccc2)c1` (stereo not given), the inhibition was -3.45%. Under `COc1ccc(-c2cc(OC(=O)c3ccccc3)c3c(C)oc(C)c3c(=O)c2)cc1OC` stands -4.77%; under `CCOc1ccccc1NC(=O)CCc1c(C)nc2c(c(C)nn2-c2ccccc2)c1C`, 0.263%. Under `C#CCSc1nc(-c2ccccc2)c2cc(Cl)ccc2n1` stands 6.69%. Then `Cc1ccc(Cl)cc1N1CCN(C(=O)c2ccc3c(c2)N(Cc2ccccc2F)C(=O)c2ccccc2S3=O)CC1` (stereo not given), with -2.08%; and `Cc1ccc(CNC(=O)c2sc3nc(-c4ccccc4)cn3c2C)cc1`, with -22.8%. As for `O=C(CCS(=O)(=O)c1cc(Br)cc2c1N(C(=O)C1CC1)CC2)Nc1ccc(F)cc1`, the inhibition was 2.91%. Under `COCCNC(=O)c1c[nH]c2ccc(S(=O)(=O)N3CCOCC3)cc2c1=O` stands active: 46.1%; under `CCOc1ccccc1CNC(=O)c1cnc2sc(N3CCOCC3)nn2c1=O`, -2.6%; under `CCN(C(=O)Cn1c(=O)nc(-c2ccccc2)c2cc(Cl)ccc21)c1cccc(C)c1`, 3.43%.

In the case of `CCc1cccc(NC(=O)C2CCC(CNS(=O)(=O)c3ccc4c(c3)CCCC(=O)N4)CC2)c1` (stereo not given), the inhibition amounted to 8.93%.

For the molecule `Cc1cncn1CCc1nc2c3ccccc3nc(SCC(=O)Nc3ccc(F)cc3)n2n1`, the inhibition was -24.2%. Then `CCOc1ccc(CCNC(=O)Cn2ncc3c([nH]c4ccccc43)c2=O)cc1OCC`, with -26.2%. Under `CCc1nc2ccc(C(=O)NCc3ccc(SC)cc3)cc2nc1CC` stands -21.4%.

For `OCCN1CCN(C(c2ccc(Cl)cc2Cl)c2sc3nc(-c4ccco4)nn3c2O)CC1` (stereo not given), the inhibition is -9.91%. Under `CCOc1ccc(-n2c(SCC(=O)Nc3ccc4c(c3)OCCO4)nc3c([nH]c4ccccc43)c2=O)cc1` stands 18.4%; under `Cc1nc(-c2ccc(Cl)cc2)sc1C1(C)CC(c2cccc(F)c2)=NO1` (stereo not given), active: 30.5%; under `Clc1ccccc1-c1nnc(-c2ccccc2CNc2ccc(Br)cc2)o1`, -8.88%.

On to `CN(C)S(=O)(=O)c1cccc(C(=O)NCCOC(=O)c2cc(F)c(F)cc2Cl)c1`, for which the inhibition is active: 34.2%. Under `COc1ccc(-c2c(C)nn3c(N4CCN(c5ccccc5F)CC4)cc(C)nc23)cc1OC` stands -0.202%. As for `CCc1c(C)sc2c1CCN(C(=O)Nc1cc(C)ccc1OC)C2c1ccc(F)cc1` (stereo not given), the inhibition was 3.55%.

As to `Cc1ccc(NS(=O)(=O)c2ccc3[nH]c4c(c3c2)CCCCCC4)cc1`, the inhibition amounted to 16.9%.

Take `CCC(=O)N1CCc2cc(CNS(=O)(=O)c3ccc(Br)s3)ccc21`: the inhibition was -11.3%. Under `CCN1CCN(C(c2ccccc2F)c2c(O)cc(C)n(CCOC)c2=O)CC1` (stereo not given) stands 1.68%; under `CCCN(CCC)CCNC(=O)c1sc2nc3n(c(=O)c2c1C)CCCCC3`, -0.503%. `Cc1ccc(C)c(N2C(=O)N(C)c3ccccc3S2(=O)=O)c1`: the inhibition is 4.17%.

For the molecule `CC1CCCN(S(=O)(=O)c2ccc(N3CCCCS3(=O)=O)cc2)C1` (stereo not given), the inhibition was 16.2%. Then `C=CCc1ccc(OCc2ccc(C(=O)Nc3ccc(NC(C)=O)cc3)o2)c(OC)c1`, with -7.23%; and `COc1cccc(NC(=O)Cn2cc(C(=O)c3ccc(F)cc3)c(=O)c3cc(OC)ccc32)c1`, with -9.24%; and `Cc1cccc(Cn2cnc3c(oc4ccccc43)c2=O)c1`, with 3.16%. Regarding `CC(C)c1ccc(NC(=O)c2ccc(Cn3nc(N4CCN(c5ccccc5)CC4)ccc3=O)o2)cc1`, the inhibition was -13.6%. Then `O=C(Cn1ncn2nc(-c3cccs3)cc2c1=O)NCc1ccccc1Cl`, with -8.71%; and `CCc1ccc(N2C(=O)CSC23C(=O)N(Cc2cccc(OC)c2)c2ccccc23)cc1` (stereo not given), with 5.56%. Then `O=C(NC1CCCCC1)[C@H](O)[C@@H](O)C(=O)NC1CCCCC1`, with active: 48.9%. Under `CCn1c(=NC(=O)c2ccc(S(=O)(=O)N3CCCC3)cc2)sc2cc(Br)ccc21` stands 15.6%; under `O=C(CN1CCN(c2ccccc2)CC1)c1ccc2cc[nH]c2c1`, active: 90%; under `O=c1cc(-c2ccc(F)cc2)nc(SCc2nc(-c3cccc(C(F)(F)F)c3)no2)[nH]1`, -19.1%.

`Cc1c(C(=O)N(Cc2cccc(F)c2)C2CCS(=O)(=O)C2)oc2cc(Br)ccc12` (stereo not given): the inhibition was -7.33%. Then `COc1ccc(NC(=O)CN2C(=O)C3(SCC(=O)N3c3ccccc3)c3ccccc32)cc1Cl` (stereo not given), with -4.34%; and `COc1ccc(CNC(=O)c2cccc(N3CCCS3(=O)=O)c2)cc1OC`, with 27.5%. Then `CCC(=O)c1ccc(OCC(O)CN2CCN(c3ccc(F)cc3)CC2)cc1` (stereo not given), with active: 30.6%. Take `Cn1cc(S(=O)(=O)c2cccc(Cl)c2)c(=O)c2cc(F)c(N3CCN(c4ccc(F)cc4)CC3)cc21`: the inhibition is -2.23%. Then `Cc1ccc(-c2noc(CNS(=O)(=O)c3ccc(F)cc3)n2)cc1`, with -14%. For `CCc1ccc(Nc2nn(-c3ccc(OC(F)(F)F)cc3)nc2C(C)=O)cc1`, the inhibition is -11.2%.

Take `COc1ccccc1N1CCN(C(=O)CN2C(=O)COc3ccc(S(=O)(=O)N4CCCCCC4)cc32)CC1`: the inhibition worked out at 0.766%. Then `CCN(CC)c1ccc(NC(=O)c2cnc3c(-c4ccccc4)c(C)nn3c2C)c(C)c1`, with 2.09%; and `Cc1c(NC(=O)c2cc(-c3ccc(F)cc3)on2)c(=O)n(-c2ccccc2)n1C`, with -8.91%. Then `Cc1nnc(N2CCN(C(=O)NC(C)C)CC2)c2nn(-c3ccccc3)c(C)c12`, with 6.93%; and `Cc1cc(-c2nc3ncccc3o2)ccc1NC(=O)COc1ccccc1C`, with -6.52%; and `CCOC(=O)c1ccccc1NC(=O)CSc1ccc(-c2cccs2)nn1`, with 5.58%.

Regarding `O=c1c2oc3ccccc3c2n(Cc2cccc(Cl)c2)c(=O)n1Cc1ccco1`, the inhibition came to 3.47%. With `Cc1ccc2occ(CC(=O)N(Cc3ccc(Cl)cc3)C3CCS(=O)(=O)C3)c2c1` (stereo not given), the inhibition was -4.41%. Then `FC(F)(F)c1ccccc1CN1CCN(C2CCCCCC2)CC1`, with active: 43.8%; and `O=S(=O)(Nc1cc(F)ccc1F)c1ccc2[nH]c3c(c2c1)CCCC3`, with 11.6%; and `NS(=O)(=O)c1ccc(CCNc2nccn(-c3cccc(C(F)(F)F)c3)c2=O)cc1`, with 4.12%.

Source of the values: PubChem BioAssay AID485344 (National Center for Advancing Translational Sciences (NCATS), 2010).
